# Reference: publication PMC12820563, “FoxP3 forms a head-to-head dimer in vivo and stabilizes its multimerization on adjacent microsatellites”
# This is one part of the list.
# Biological target: T1, MBP-FoxP1dN (Mus musculus, UniProt P58462 326-579)
# T1 sequence: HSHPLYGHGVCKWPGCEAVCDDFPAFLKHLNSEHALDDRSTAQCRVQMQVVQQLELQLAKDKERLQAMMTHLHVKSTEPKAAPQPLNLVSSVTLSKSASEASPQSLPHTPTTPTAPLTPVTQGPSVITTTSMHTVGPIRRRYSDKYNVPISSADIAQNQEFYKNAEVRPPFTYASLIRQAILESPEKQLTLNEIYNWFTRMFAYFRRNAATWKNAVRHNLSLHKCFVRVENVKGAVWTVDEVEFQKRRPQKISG
# Assay: PD-seq (MBP pull-down with sequencing); 20 mM Tris-HCl pH 7.5, 100 mM NaCl, 1.5 mM MgCl2, 0.4 uM protein, 0.1 uM dsDNA library, 30 min, room temperature, amylose pull-down; high values mean tight binding
# Conditions: protein: recombinant; tags: His6-MBP; chain copies: 2; dsDNA, one strand shown
# Procedure, shortened: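 A degenerate double-stranded DNA library, filled in with Klenow, was added at 0.1 µM to 0.4 µM His6-MBP-tagged mouse FoxP3 or FoxP1 fragment lacking the N-terminus, expressed in E. coli. Incubation lasted 30 min at room temperature in Tris pH 7.5 buffer with NaCl and MgCl2, after which complexes were collected on amylose resin, washed three times, digested with proteinase K to free the DNA, barcoded by PCR and sequenced by Illumina. Binding is the pooled-replicate reads-per-million enrichment of pull-down over input.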
row,Sequence,binding signal
1,GATGATTGTTCTCCCAGCTGATGAATTGCAAAAATCGAGTAAACAAATTTTCCTAATCTTTCTGTTCAAGCGCCATCTAC,1.55 RPM ratio (pull-down/input)
2,GATGATTGTTCTCCCAGCTGATGAATTCAGTCAGTCGAGTAAACAAATTTTCCTAATCTTTCTGTTCAAGCGCCATCTAC,0.809 RPM ratio (pull-down/input)
3,GATGATTGTTCTCCCAGCTGATGAATTCTATTACTCGAGTAAACAAATTTTCCTAATCTTTCTGTTCAAGCGCCATCTAC,0.895 RPM ratio (pull-down/input)
4,GATGATTGTTCTCCCAGCTGATGAATTTATCCATTCGAGTAAACAAATTTTCCTAATCTTTCTGTTCAAGCGCCATCTAC,1.11 RPM ratio (pull-down/input)
5,GATGATTGTTCTCCCAGCTGATGAATTTGCGTATTCGAGTAAACAAATTTTCCTAATCTTTCTGTTCAAGCGCCATCTAC,1.1 RPM ratio (pull-down/input)
6,GATGATTGTTCTCCCAGCTGATGAATTGCCTCCCTCGAGTAAACAAATTTTCCTAATCTTTCTGTTCAAGCGCCATCTAC,0.991 RPM ratio (pull-down/input)
7,GATGATTGTTCTCCCAGCTGATGAATTACTAGTTTCGAGTAAACAAATTTTCCTAATCTTTCTGTTCAAGCGCCATCTAC,1.16 RPM ratio (pull-down/input)
8,GATGATTGTTCTCCCAGCTGATGAATTACCGCCTTCGAGTAAACAAATTTTCCTAATCTTTCTGTTCAAGCGCCATCTAC,1 RPM ratio (pull-down/input)
9,GATGATTGTTCTCCCAGCTGATGAATTCGTTGCATCGAGTAAACAAATTTTCCTAATCTTTCTGTTCAAGCGCCATCTAC,1.19 RPM ratio (pull-down/input)
10,GATGATTGTTCTCCCAGCTGATGAATTTGTTGAGTCGAGTAAACAAATTTTCCTAATCTTTCTGTTCAAGCGCCATCTAC,1.21 RPM ratio (pull-down/input)
11,GATGATTGTTCTCCCAGCTGATGAATTGTCAAGTTCGAGTAAACAAATTTTCCTAATCTTTCTGTTCAAGCGCCATCTAC,1.02 RPM ratio (pull-down/input)
12,GATGATTGTTCTCCCAGCTGATGAATTCACTCGATCGAGTAAACAAATTTTCCTAATCTTTCTGTTCAAGCGCCATCTAC,0.917 RPM ratio (pull-down/input)
13,GATGATTGTTCTCCCAGCTGATGAATTGGTTTTTTCGAGTAAACAAATTTTCCTAATCTTTCTGTTCAAGCGCCATCTAC,1.15 RPM ratio (pull-down/input)
14,GATGATTGTTCTCCCAGCTGATGAATTATTTTCTTCGAGTAAACAAATTTTCCTAATCTTTCTGTTCAAGCGCCATCTAC,1.5 RPM ratio (pull-down/input)
15,GATGATTGTTCTCCCAGCTGATGAATTAAGCAAGTCGAGTAAACAAATTTTCCTAATCTTTCTGTTCAAGCGCCATCTAC,0.946 RPM ratio (pull-down/input)
16,GATGATTGTTCTCCCAGCTGATGAATTAACTGCGTCGAGTAAACAAATTTTCCTAATCTTTCTGTTCAAGCGCCATCTAC,1.05 RPM ratio (pull-down/input)
17,GATGATTGTTCTCCCAGCTGATGAATTCTCGTGATCGAGTAAACAAATTTTCCTAATCTTTCTGTTCAAGCGCCATCTAC,0.932 RPM ratio (pull-down/input)
18,GATGATTGTTCTCCCAGCTGATGAATTTGTCATGTCGAGTAAACAAATTTTCCTAATCTTTCTGTTCAAGCGCCATCTAC,1.05 RPM ratio (pull-down/input)
19,GATGATTGTTCTCCCAGCTGATGAATTAGCAGAGTCGAGTAAACAAATTTTCCTAATCTTTCTGTTCAAGCGCCATCTAC,0.835 RPM ratio (pull-down/input)
20,GATGATTGTTCTCCCAGCTGATGAATTCTGGCCGTCGAGTAAACAAATTTTCCTAATCTTTCTGTTCAAGCGCCATCTAC,0.73 RPM ratio (pull-down/input)
21,GATGATTGTTCTCCCAGCTGATGAATTAAGCTCCTCGAGTAAACAAATTTTCCTAATCTTTCTGTTCAAGCGCCATCTAC,0.777 RPM ratio (pull-down/input)

row,Sequence,binding signal
1,GATGATTGTTCTCCCAGCTGATGAATTAGCACTTTCGAGTAAACAAATTTTCCTAATCTTTCTGTTCAAGCGCCATCTAC,0.931 RPM ratio (pull-down/input)
2,GATGATTGTTCTCCCAGCTGATGAATTCACAGTGTCGAGTAAACAAATTTTCCTAATCTTTCTGTTCAAGCGCCATCTAC,0.886 RPM ratio (pull-down/input)
3,GATGATTGTTCTCCCAGCTGATGAATTAAGACGCTCGAGTAAACAAATTTTCCTAATCTTTCTGTTCAAGCGCCATCTAC,0.99 RPM ratio (pull-down/input)
4,GATGATTGTTCTCCCAGCTGATGAATTCTGTCGTTCGAGTAAACAAATTTTCCTAATCTTTCTGTTCAAGCGCCATCTAC,0.94 RPM ratio (pull-down/input)
5,GATGATTGTTCTCCCAGCTGATGAATTGGATCATTCGAGTAAACAAATTTTCCTAATCTTTCTGTTCAAGCGCCATCTAC,0.943 RPM ratio (pull-down/input)
6,GATGATTGTTCTCCCAGCTGATGAATTAATACATTCGAGTAAACAAATTTTCCTAATCTTTCTGTTCAAGCGCCATCTAC,1.18 RPM ratio (pull-down/input)
7,GATGATTGTTCTCCCAGCTGATGAATTCGTCTGGTCGAGTAAACAAATTTTCCTAATCTTTCTGTTCAAGCGCCATCTAC,0.807 RPM ratio (pull-down/input)
8,GATGATTGTTCTCCCAGCTGATGAATTTTTGATCTCGAGTAAACAAATTTTCCTAATCTTTCTGTTCAAGCGCCATCTAC,0.982 RPM ratio (pull-down/input)
9,GATGATTGTTCTCCCAGCTGATGAATTATACCTTTCGAGTAAACAAATTTTCCTAATCTTTCTGTTCAAGCGCCATCTAC,1.01 RPM ratio (pull-down/input)
10,GATGATTGTTCTCCCAGCTGATGAATTCGGAGATTCGAGTAAACAAATTTTCCTAATCTTTCTGTTCAAGCGCCATCTAC,0.87 RPM ratio (pull-down/input)
11,GATGATTGTTCTCCCAGCTGATGAATTTCGGTCATCGAGTAAACAAATTTTCCTAATCTTTCTGTTCAAGCGCCATCTAC,0.881 RPM ratio (pull-down/input)
12,GATGATTGTTCTCCCAGCTGATGAATTCTCGACCTCGAGTAAACAAATTTTCCTAATCTTTCTGTTCAAGCGCCATCTAC,0.757 RPM ratio (pull-down/input)
13,GATGATTGTTCTCCCAGCTGATGAATTGATTTTCTCGAGTAAACAAATTTTCCTAATCTTTCTGTTCAAGCGCCATCTAC,1.26 RPM ratio (pull-down/input)
14,GATGATTGTTCTCCCAGCTGATGAATTATCCTAATCGAGTAAACAAATTTTCCTAATCTTTCTGTTCAAGCGCCATCTAC,1.01 RPM ratio (pull-down/input)
15,GATGATTGTTCTCCCAGCTGATGAATTCAGTGCCTCGAGTAAACAAATTTTCCTAATCTTTCTGTTCAAGCGCCATCTAC,0.912 RPM ratio (pull-down/input)
16,GATGATTGTTCTCCCAGCTGATGAATTGCCGACCTCGAGTAAACAAATTTTCCTAATCTTTCTGTTCAAGCGCCATCTAC,0.815 RPM ratio (pull-down/input)
17,GATGATTGTTCTCCCAGCTGATGAATTAGCAACTTCGAGTAAACAAATTTTCCTAATCTTTCTGTTCAAGCGCCATCTAC,1.12 RPM ratio (pull-down/input)
18,GATGATTGTTCTCCCAGCTGATGAATTACCCCTGTCGAGTAAACAAATTTTCCTAATCTTTCTGTTCAAGCGCCATCTAC,0.888 RPM ratio (pull-down/input)
19,GATGATTGTTCTCCCAGCTGATGAATTAGAACAGTCGAGTAAACAAATTTTCCTAATCTTTCTGTTCAAGCGCCATCTAC,0.963 RPM ratio (pull-down/input)
20,GATGATTGTTCTCCCAGCTGATGAATTCGCGCTATCGAGTAAACAAATTTTCCTAATCTTTCTGTTCAAGCGCCATCTAC,0.866 RPM ratio (pull-down/input)
21,GATGATTGTTCTCCCAGCTGATGAATTCCCAAGGTCGAGTAAACAAATTTTCCTAATCTTTCTGTTCAAGCGCCATCTAC,0.722 RPM ratio (pull-down/input)

row,Sequence,binding signal
1,GATGATTGTTCTCCCAGCTGATGAATTAGATGACTCGAGTAAACAAATTTTCCTAATCTTTCTGTTCAAGCGCCATCTAC,1.03 RPM ratio (pull-down/input)
2,GATGATTGTTCTCCCAGCTGATGAATTCTTCATGTCGAGTAAACAAATTTTCCTAATCTTTCTGTTCAAGCGCCATCTAC,0.907 RPM ratio (pull-down/input)
3,GATGATTGTTCTCCCAGCTGATGAATTCTTTCATTCGAGTAAACAAATTTTCCTAATCTTTCTGTTCAAGCGCCATCTAC,0.879 RPM ratio (pull-down/input)
4,GATGATTGTTCTCCCAGCTGATGAATTTCTTACATCGAGTAAACAAATTTTCCTAATCTTTCTGTTCAAGCGCCATCTAC,0.931 RPM ratio (pull-down/input)
5,GATGATTGTTCTCCCAGCTGATGAATTTGGGAAATCGAGTAAACAAATTTTCCTAATCTTTCTGTTCAAGCGCCATCTAC,1.01 RPM ratio (pull-down/input)
6,GATGATTGTTCTCCCAGCTGATGAATTTTCCAGCTCGAGTAAACAAATTTTCCTAATCTTTCTGTTCAAGCGCCATCTAC,0.814 RPM ratio (pull-down/input)
7,GATGATTGTTCTCCCAGCTGATGAATTCGTATGATCGAGTAAACAAATTTTCCTAATCTTTCTGTTCAAGCGCCATCTAC,0.926 RPM ratio (pull-down/input)
8,GATGATTGTTCTCCCAGCTGATGAATTGCATGGCTCGAGTAAACAAATTTTCCTAATCTTTCTGTTCAAGCGCCATCTAC,0.983 RPM ratio (pull-down/input)
9,GATGATTGTTCTCCCAGCTGATGAATTACTAACCTCGAGTAAACAAATTTTCCTAATCTTTCTGTTCAAGCGCCATCTAC,1.09 RPM ratio (pull-down/input)
10,GATGATTGTTCTCCCAGCTGATGAATTGCCTGCGTCGAGTAAACAAATTTTCCTAATCTTTCTGTTCAAGCGCCATCTAC,1.05 RPM ratio (pull-down/input)
11,GATGATTGTTCTCCCAGCTGATGAATTCGGCCCCTCGAGTAAACAAATTTTCCTAATCTTTCTGTTCAAGCGCCATCTAC,0.769 RPM ratio (pull-down/input)
12,GATGATTGTTCTCCCAGCTGATGAATTCTGAACTTCGAGTAAACAAATTTTCCTAATCTTTCTGTTCAAGCGCCATCTAC,0.823 RPM ratio (pull-down/input)
13,GATGATTGTTCTCCCAGCTGATGAATTCACCCAATCGAGTAAACAAATTTTCCTAATCTTTCTGTTCAAGCGCCATCTAC,0.965 RPM ratio (pull-down/input)
14,GATGATTGTTCTCCCAGCTGATGAATTGCTACTCTCGAGTAAACAAATTTTCCTAATCTTTCTGTTCAAGCGCCATCTAC,1.11 RPM ratio (pull-down/input)
15,GATGATTGTTCTCCCAGCTGATGAATTGGCCCATTCGAGTAAACAAATTTTCCTAATCTTTCTGTTCAAGCGCCATCTAC,0.877 RPM ratio (pull-down/input)
16,GATGATTGTTCTCCCAGCTGATGAATTGCTCATATCGAGTAAACAAATTTTCCTAATCTTTCTGTTCAAGCGCCATCTAC,1.06 RPM ratio (pull-down/input)
17,GATGATTGTTCTCCCAGCTGATGAATTCCACAGCTCGAGTAAACAAATTTTCCTAATCTTTCTGTTCAAGCGCCATCTAC,0.752 RPM ratio (pull-down/input)
18,GATGATTGTTCTCCCAGCTGATGAATTGTGCTCTTCGAGTAAACAAATTTTCCTAATCTTTCTGTTCAAGCGCCATCTAC,1.12 RPM ratio (pull-down/input)
19,GATGATTGTTCTCCCAGCTGATGAATTATCGAAATCGAGTAAACAAATTTTCCTAATCTTTCTGTTCAAGCGCCATCTAC,1.06 RPM ratio (pull-down/input)
20,GATGATTGTTCTCCCAGCTGATGAATTGTCAAGCTCGAGTAAACAAATTTTCCTAATCTTTCTGTTCAAGCGCCATCTAC,1.01 RPM ratio (pull-down/input)
21,GATGATTGTTCTCCCAGCTGATGAATTTTCAAATTCGAGTAAACAAATTTTCCTAATCTTTCTGTTCAAGCGCCATCTAC,0.956 RPM ratio (pull-down/input)
